This is one part of the list. Sequences were assembled here from the parent chain. Values near 0.05 are background.
B1: TEV protease; numbered along this chain (parent)
chain: MGESLFKGPRDYNPISSSICHLTNESDGHTTSLYGIGFGPFIITNKHLFRRNNGTLVVQSLHGVFKVKDTTTLQQHLVDGRDMIIIRMPKDFPPFPQKLKFREPQREERICLVTTNFQTKSMSSMVSDTSCTFPSGDGIFWKHWIQTKDGQCGSPLVSTRDGFIVGIHSASNFTNTNNYFTSVPKNFMELLTNQEAQQWVSGWRLNADSVLWGGHKVFMVKPEEPFQPVKEATQL

Variants of: B1
Assay: raw area under fraction-flipped curve 0-4 h after induction (AUC4h, not background-subtracted), DNA-recorder readout of cleavage of the substrate (dimensionless); higher = more cleavage of the substrate by the protease variant
Conditions: temperature: 34 °C; time window: 0-4 h after rhamnose induction
Procedure: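 In vivo DNA recorder in E. coli TOP10(DE3) ΔrhaA at 34 °C. Each TEVp single-site mutant (parent TEVp 0) is paired with a single-site variant of the 7-mer TEVs (canonical ENLYFQ|S). The substrate sits between flexible linkers in a Bxb1-sfGFP-TEVs-SsrA fusion, so cleavage stabilises Bxb1 and speeds flipping of a recombination array, read by NGS. The value is the raw area under the fraction-flipped curve over 0-4 h after rhamnose induction (AUC4h), with ≥20 reads per time point. It is not background-subtracted; inactive controls average about 0.047.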
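Further: Bxb1 expression induced with 0.2% (w/v) L-rhamnose at OD600 near 0.5, cultures sampled hourly, flipped fraction per protease–substrate barcode pair counted by paired-end Illumina sequencing.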

Variant | area with substrate ENAYFQS | area with substrate ENDYFQS | area with substrate ENEYFQS | area with substrate ENFYFQS | area with substrate ENGYFQS | area with substrate ENHYFQS | area with substrate ENIYFQS | area with substrate ENKYFQS | area with substrate ENMYFQS | area with substrate ENPYFQS | area with substrate ENQYFQS | area with substrate ENRYFQS | area with substrate ENSYFQS | area with substrate ENVYFQS | area with substrate ENYYFQS | area with substrate ENCYFQS | area with substrate ENTYFQS | area with substrate ENNYFQS | area with substrate ENWYFQS
L190H | 0.0532 | 0.0694 | 0.0568 | 0.057 | 0.0663 | 0.0581 | 0.11 | 0.0617 | 0.0833 | 0.0638 | 0.0475 | 0.0491 | 0.0613 | 0.0692 | 0.0274 |  |  |  | 
L191D | 0.0554 |  | 0.0498 | 0.0565 |  | 0.0517 | 0.0289 | 0.0629 | 0.0602 |  | 0.0628 |  |  |  | 0.0659 | 0.0585 | 0.0591 |  | 
L191M | 0.0526 | 0.0928 | 0.0492 | 0.0521 | 0.0589 | 0.0584 |  | 0.0741 | 0.0761 | 0.0657 | 0.0312 | 0.0523 | 0.057 | 0.067 | 0.0687 | 0.0641 | 0.0754 | 0.0612 | 0.0437
L191G | 0.0521 | 0.0438 |  |  | 0.0637 | 0.0539 | 0.069 | 0.0598 |  | 0.0667 | 0.0476 |  | 0.0502 | 0.0588 |  | 0.0467 |  | 0.0537 | 0.0461
P184M | 0.0588 | 0.0521 | 0.0438 | 0.0519 | 0.0501 | 0.0584 | 0.0791 | 0.0648 | 0.0597 | 0.0416 | 0.0534 | 0.0608 | 0.0555 | 0.0559 | 0.0536 | 0.0536 |  | 0.0503 | 
M219G | 0.0536 | 0.0568 | 0.0559 | 0.0538 | 0.0504 | 0.0538 | 0.0908 | 0.0699 | 0.0664 | 0.0553 | 0.0628 | 0.0551 | 0.0602 | 0.0688 | 0.0593 | 0.0545 | 0.0575 | 0.0658 | 0.0105
M219I | 0.063 | 0.069 | 0.0592 | 0.0664 | 0.0638 | 0.0601 | 0.0905 |  |  | 0.0523 | 0.0651 | 0.0463 | 0.017 | 0.0651 |  |  | 0.0633 | 0.0489 | 0.0586
Q198E | 0.0666 | 0.0553 |  | 0.0655 |  |  | 0.124 |  |  |  | 0.0579 |  | 0.0666 |  | 0.0561 | 0.0706 | 0.0603 | 0.0796 | 
Q198R | 0.0721 | 0.0646 |  | 0.0517 | 0.105 | 0.0557 |  | 0.0676 | 0.079 |  | 0.0557 | 0.0541 | 0.057 | 0.0775 |  | 0.0678 | 0.0734 | 0.0601 | 
Q198D | 0.0504 | 0.0691 | 0.0562 | 0.0715 | 0.0725 | 0.0648 |  | 0.0601 | 0.0551 |  | 0.0619 | 0.0556 | 0.0611 | 0.0758 |  |  | 0.063 |  | 0.0451
R204C | 0.0937 | 0.0647 | 0.0635 | 0.0679 | 0.0577 | 0.0713 | 0.114 |  | 0.0808 | 0.0621 | 0.0619 | 0.055 | 0.0633 | 0.093 |  | 0.0518 | 0.0731 | 0.0606 | 
S201A | 0.0724 |  |  |  | 0.073 |  |  | 0.0574 | 0.0551 |  | 0.0646 | 0.0842 | 0.06 |  | 0.0611 | 0.0681 |  |  | 

— the supplement of paper PMC12217912
